Test results: PubChem BioAssay AID445 (National Center for Advancing Translational Sciences (NCATS), 2006)
The whole screen tested about 110,000 compounds, of which about 40 (0.04%) were called active. Inconclusive results, whose numbers are uncertain, are shown with a selection of clear calls. Calls follow the shape of the dose curve; as a rule, active = well fitted curve in the direction sought with a large enough effect in the signal ratio (not every such curve was filed as active); inconclusive = small, poorly fitted or top-dose-only effect, or a change in a side signal; inactive = flat fitted curve, though single readings scatter; the % refers to the signal ratio. Where the call is inconclusive, the potency comes from a doubtful curve fit.

Test: IkB Signaling;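 as to IkBa stabilization activation: 0% = basal untreated cells and 100% = reference inhibitor full response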
Settings: ABC-DLBCL IkBa-CBG/CBR dual luciferase ratio (green luciferase fused to IkBa over red control in OCI-Ly3 lymphoma cells), 4 h; IkBa stabilization activation: at 57.1 µM (top of the series), scaled: untreated 0%, proteasome inhibitor 100% unless noted
Outline: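 Curves were fitted separately to fusion (green), unfused (red) and ratio luminescence, then classed by r2, magnitude and activity. Cells: OCI-Ly3, 4 h compound plus doxycycline at 37C; 10 uM MG-132 defined full response.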
Potency is read from the fitted curve at half-maximal effect.

SMILES	Potency	IkBa stabilization activation
COc1cccc(NC(=O)Cc2cn(C)c3ccccc23)c1	inconclusive: 1 µM [signal inhibitor, partial curve]	
COc1ccc(Cn2c(SCC(N)=O)nc3c(sc4ccccc43)c2=O)cc1		inconclusive: 3.61% [signal activator]
Cc1cnc2c(c1SCC(=O)Nc1ccc(F)cc1F)c(=O)n(C)c(=O)n2C		inconclusive: 6.75% [signal inhibitor]
Cc1cc(F)ccc1NC(=O)C1CCCN(S(=O)(=O)c2ccc3c(c2)CCCC(=O)N3)C1 (centres undefined)		inactive
c1ccc(OCCSc2ncnc3nc[nH]c23)cc1		inconclusive: 5.7% [signal inhibitor]
COc1ccc(S(=O)(=O)c2c(Nc3ccc(C)cc3)sc(C(=O)c3ccc4c(c3)OCO4)c2N)cc1		inactive
COc1ccc(N(Cc2cccs2)C(=O)COc2ccc(C(C)C)cc2)cc1		inconclusive: 1.46% [signal inhibitor]
CCc1c(O)nc(SCC(=O)Nc2ccc3c(c2)CCC3)[nH]c1=O		inactive
CN(C)c1ccc(CN(CC2CCCO2)C(=O)c2ccc(Br)cc2)cc1 (centres undefined)		inconclusive: 1.66% [signal inhibitor]
Cc1ccc(-n2c(=O)c3ccc(C(=O)NCc4ccccc4Cl)cc3n(CC(=O)Nc3cccc(F)c3)c2=O)cc1		inconclusive: 1.31% [signal inhibitor]
Cc1cc(NC(=O)Cn2nc(C)n3cccc3c2=O)ccc1Br		inconclusive: -0.664% [signal inhibitor]
CCOC(=O)c1c(C)[nH]c(C(=O)OC/C(O)=C(\C#N)c2nc3ccccc3[nH]2)c1C		inconclusive: 9.43% [signal inhibitor]
CCN(CC)CCCNC(=O)c1cc2c(-c3ccc(Cl)cc3)nn(C)c2s1	inconclusive: 25.1 µM [rising, single point]	
CCN(CC)c1cccc(O)c1		inactive
CN(C)c1ncc2nc(-c3cccs3)c(=O)n(CCc3ccccc3)c2n1		inactive: 0.831% [at 11.4 µM, scaled: untreated 0%, proteasome inhibitor 100%]
CCCCN1C(=O)CN(C2CCCCC2)C(=O)C1c1ccc(OC(C)C)c(OC)c1 (centres undefined)		inconclusive: -0.865% [signal inhibitor]
Cc1cccc(-n2ncc(C(=O)NCc3ccccn3)c2C2CCN(C(=O)OC(C)(C)C)CC2)c1		inconclusive: -0.952% [signal inhibitor]
COCC(=O)Nc1nc2ccc(C)cc2s1		inactive
CCN1CCN(Cc2c(O)ccc3c(C)c(-c4ccccc4)c(=O)oc23)CC1		inactive
c1ccc2sc(-c3ccc4c(c3)OCO4)nc2c1	inconclusive: 25.1 µM [signal inhibitor, partial curve]	
CCOc1ccc(Br)cc1CNCCSc1nnnn1-c1ccccc1		inconclusive: 1.35% [signal inhibitor]
CC(C)(C)OC(=O)N1CCC(c2c(C(=O)Nc3ccc4c(c3)OCCO4)cnn2-c2ccccc2)CC1		inconclusive: -1.22% [signal inhibitor]

SMILES	Potency	IkBa stabilization activation
COc1ccc(CNC(=O)c2cc3c(s2)-c2c(C)cccc2OC3)cc1		inconclusive: 2.07% [signal inhibitor]
CCn1c(=O)cc(OCC(=O)Nc2ccccc2N2CCN(C)CC2)c2ccccc21		inactive
Cc1ccc(C)c(NC(=O)C(=O)NCCc2csc3nc(-c4ccccc4C)nn23)c1		inconclusive: 5.15% [signal inhibitor]
COc1cccc(CNC(=O)CN2C(=O)COc3ccc(S(=O)(=O)Nc4ccccc4)cc32)c1		inconclusive: 2.05% [signal inhibitor]
COc1ccc(CNC(=O)C2CCN(C(=O)N3CC(C)Oc4ccc(C)cc43)CC2)cc1 (centres undefined)		inconclusive: 0.242% [signal inhibitor]
O=C(Nc1ccc(Cl)cc1)c1cc(S(=O)(=O)N2CCc3ccccc32)ccc1F		inconclusive: 11.2% [signal inhibitor]
O=C(Nc1ccc2c(c1)OCO2)c1cccc(F)c1		inactive
Cc1cc(C)cc(NC(=O)C2CCC(CNS(=O)(=O)c3ccc4c(c3)C(C)(C)C(=O)N4C)CC2)c1 (centres undefined)		inconclusive: 0.723% [signal inhibitor]
CCOC(=O)C1CCCN(Cc2nc(N)nc(Nc3ccc(OC)cc3)n2)C1 (centres undefined)		inconclusive: 0.393% [signal inhibitor]
COc1ccc(C)cc1NC(=O)CSc1ccc(-c2ccccn2)nn1		inconclusive: 1.97% [signal inhibitor]
COc1ccccc1C(=O)Nc1c(C(=O)N(C)c2ccccc2)sc2nc(C)cc(C)c12		inconclusive: 1.73% [signal inhibitor]
C=CCNc1nc(N)c(C(=O)Nc2cc(C)on2)s1		inactive
Cc1nn2c(=O)cc(COC(=O)c3cccc(NC(=O)c4ccc(C(C)(C)C)cc4)c3)nc2s1		inconclusive: 1.82% [signal inhibitor]
Cc1ccc2[nH]c(=O)c3cc(C(=O)N(C)Cc4ccco4)sc3c2c1		inconclusive: 8.39% [signal inhibitor]
O=C(COC(=O)c1cccc(NC(=O)c2ccc(Br)cc2)c1)c1ccc(Br)cc1	inconclusive: 15.8 µM [signal inhibitor]	
COc1cccc(C(=O)Nc2ccc3nc(N4CCC(C)CC4)cc(C)c3c2)c1		inconclusive: 7.13% [signal inhibitor]
CCOC(=O)c1[nH]c2c(c1Cc1ccccc1OC)C(=O)CC(c1ccc(OCC)cc1)C2 (centres undefined)		inconclusive: -0.693% [signal inhibitor]
CCc1nnc(NC(=O)CSc2nc3c(cc2C#N)CCCC3)s1		inactive
COc1ccc(C2=CC(c3cccc(C)c3)n3nnnc3N2)cc1 (centres undefined)		inactive
COc1cc(NC(=O)Cn2nc(-c3ccc(C)c(C)c3)ccc2=O)cc(OC)c1		inactive
CCOC(=O)c1c(C)oc2nc(C)nc(NCCc3ccc(SC)cc3)c12		inconclusive: -2.23% [signal inhibitor]
O=C(NC(Cc1ccccc1)C(=O)OCC(=O)N1CCc2ccccc21)c1ccco1 (centres undefined)		inconclusive: 6.03% [signal inhibitor]
